These results are taken from article PMC4336329 (PLoS ONE, 2015).

About 2,200 (0.71%) of roughly 310,000 compounds showed an effect of 50% or more. The effect is printed as a negative number. This is one part of the list.

This test deals with human ether-à-go-go-related gene (hERG) potassium channel (human, UniProt Q12809). In words: primary screen, population patch clamp on CHO cells stably expressing hERG.
Sequence of human ether-à-go-go-related gene (hERG) potassium channel (Q12809 whole entry, looked up): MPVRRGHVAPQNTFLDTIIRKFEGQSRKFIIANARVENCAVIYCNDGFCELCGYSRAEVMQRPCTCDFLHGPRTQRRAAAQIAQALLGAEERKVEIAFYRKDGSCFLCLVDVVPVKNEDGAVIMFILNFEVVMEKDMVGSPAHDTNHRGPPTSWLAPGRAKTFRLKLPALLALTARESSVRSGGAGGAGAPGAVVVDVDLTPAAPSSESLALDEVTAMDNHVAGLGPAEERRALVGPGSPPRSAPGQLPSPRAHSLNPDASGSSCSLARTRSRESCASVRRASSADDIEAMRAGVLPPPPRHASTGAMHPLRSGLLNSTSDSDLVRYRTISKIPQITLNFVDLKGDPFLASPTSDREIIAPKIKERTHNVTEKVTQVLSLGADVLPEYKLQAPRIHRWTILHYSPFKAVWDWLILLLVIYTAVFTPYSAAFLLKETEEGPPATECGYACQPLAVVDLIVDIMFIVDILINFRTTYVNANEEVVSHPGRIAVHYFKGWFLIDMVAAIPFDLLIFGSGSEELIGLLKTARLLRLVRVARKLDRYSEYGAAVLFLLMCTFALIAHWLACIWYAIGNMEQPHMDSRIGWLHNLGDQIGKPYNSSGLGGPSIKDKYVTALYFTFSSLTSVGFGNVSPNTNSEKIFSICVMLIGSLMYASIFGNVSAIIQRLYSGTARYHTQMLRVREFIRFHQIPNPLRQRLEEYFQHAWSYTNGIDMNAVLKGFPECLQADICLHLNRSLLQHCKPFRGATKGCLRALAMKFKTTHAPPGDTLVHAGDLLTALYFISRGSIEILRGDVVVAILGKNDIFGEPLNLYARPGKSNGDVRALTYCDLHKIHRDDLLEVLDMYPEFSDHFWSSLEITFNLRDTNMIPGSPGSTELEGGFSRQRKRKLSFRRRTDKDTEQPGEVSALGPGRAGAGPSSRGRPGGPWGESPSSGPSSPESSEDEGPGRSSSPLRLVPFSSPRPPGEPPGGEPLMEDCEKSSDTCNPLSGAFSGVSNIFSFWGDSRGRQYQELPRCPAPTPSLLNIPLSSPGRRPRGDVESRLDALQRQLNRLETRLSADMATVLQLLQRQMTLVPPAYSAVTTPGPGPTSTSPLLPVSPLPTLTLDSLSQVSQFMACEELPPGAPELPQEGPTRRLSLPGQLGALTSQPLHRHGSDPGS
`O=C(c1cc2ccccc2oc1=O)N1CCC2(CC1)OCCO2`: the “hERG current change (%, negative = inhibition) at 1uM” value worked out at 1.05%.

Regarding `COCCCn1c(C)cc(C(=O)CN2c3cccc4cccc(c34)S2(=O)=O)c1C`, the “hERG current change (%, negative = inhibition) at 1uM” value is 0.435%.

As for `Cc1cc(C)n(CC(O)CN(c2ccccc2)S(=O)(=O)c2ccc3ccccc3c2)n1` (centres unmarked), the “hERG current change (%, negative = inhibition) at 1uM” value was 6.41%.

For the compound `Cc1ccccc1C1=NC(C(F)(F)F)(C(F)(F)F)c2c(n(C)c(=O)n(C)c2=O)N1`, the “hERG current change (%, negative = inhibition) at 1uM” value came to 11.8%.

On to `CCCCSc1nnc([C@@H](NC(=O)OC(C)(C)C)C(C)C)o1`, for which the “hERG current change (%, negative = inhibition) at 1uM” value is reported as -3.35%.

For `CN(C)C(=O)Oc1cccc(OCc2n(C)c3ccccc3[n+]2C)c1.[Cl-]`, the “hERG current change (%, negative = inhibition) at 1uM” value amounted to 15.5%.

`COc1ccc(/C=C/C(=O)c2cc(F)ccc2OC(=O)c2ccccc2)cc1OC`: the “hERG current change (%, negative = inhibition) at 1uM” value is 7.22%.

As for `CCOC(=O)CNC(=O)CSc1ncnc2c1nnn2-c1ccc(F)cc1`, the “hERG current change (%, negative = inhibition) at 1uM” value stood at 8.12%.

Regarding `Cc1cc(C)c(NC(=O)CC(C)(C)C)c(Cl)c1`, the “hERG current change (%, negative = inhibition) at 1uM” value turned out to be 15.3%.

In the case of `CC(=O)c1ccc(NC(=S)Nc2ccn(Cc3ccc(Br)cc3)n2)cc1`, the “hERG current change (%, negative = inhibition) at 1uM” value was -0.993%.

With `COC(=O)C1=NN(c2ccc(C)cc2)C2C(=O)N(c3ccccc3OC)C(=O)C12` (centres unmarked), the “hERG current change (%, negative = inhibition) at 1uM” value was determined as 14.5%.

In the case of `COc1ccc(CNC(=O)CN(C(=O)Cn2nnc(-c3ccccc3F)n2)c2ccc(C)cc2)cc1`, the “hERG current change (%, negative = inhibition) at 1uM” value was -1.39%.

Consider `COc1c2occc2c(OC(C)=O)c2c(=O)cc(C)oc12`, for which the “hERG current change (%, negative = inhibition) at 1uM” value was 12.4%.

`O=S(=O)(NC1CCCCC1N1CCCCC1)c1ccccc1` (centres unmarked): the “hERG current change (%, negative = inhibition) at 1uM” value is given as 20.5%.

On to `Cc1ccc(S(=O)(=O)NC(C)C(=O)Nc2cccc([N+](=O)[O-])c2)cc1` (centres unmarked), for which the “hERG current change (%, negative = inhibition) at 1uM” value is on record as 7.29%.

For `CCC1CCc2c(sc(N)c2C(N)=O)C1` (centres unmarked), the “hERG current change (%, negative = inhibition) at 1uM” value is 12.6%.

Turning to `COc1ccccc1/C=C/CN1CCCC(CCC(=O)NCc2ccc(F)c(F)c2)C1` (centres unmarked), the “hERG current change (%, negative = inhibition) at 1uM” value was -26.2%.

`O=C(Nc1ccc2c(c1)OCO2)C1CCN(C(=O)c2ccc([N+](=O)[O-])cc2)CC1`: the “hERG current change (%, negative = inhibition) at 1uM” value was -74.6%.

In the case of `CC1(C)Oc2ccc(C(=O)NN)cc2NC1=O`, the “hERG current change (%, negative = inhibition) at 1uM” value is given as 6.86%.

As for `Cc1c(NC(=O)c2ccc(S(=O)(=O)N3CC(C)OC(C)C3)cc2)c(=O)n(-c2ccccc2)n1C` (centres unmarked), the “hERG current change (%, negative = inhibition) at 1uM” value is on record as 4.29%.

`COc1cccc2c1cc1c(=O)n(CC(=O)NCCCN3CCN(C)CC3)nc(C)n12`: the “hERG current change (%, negative = inhibition) at 1uM” value is 5.74%.

As to `O=C(NCc1cccs1)C1CCN(S(=O)(=O)N2CCCC2)CC1`, the “hERG current change (%, negative = inhibition) at 1uM” value is listed as 5.84%.

Regarding `Cc1ccc(Cl)cc1N=C(N)N=C(N)N`, the “hERG current change (%, negative = inhibition) at 1uM” value is 14.9%.

On to `Cc1nc(N)sc1N=Nc1ccccc1C(F)(F)F`, for which the “hERG current change (%, negative = inhibition) at 1uM” value was found to be 6.39%.

In the case of `COC(=O)c1sc2ncn(N)c(=O)c2c1C`, the “hERG current change (%, negative = inhibition) at 1uM” value worked out at 12.8%.

As for `O=C(Nc1cccc(-c2cccc(F)c2)c1)C1CCN(C2CCC2)CC1`, the “hERG current change (%, negative = inhibition) at 1uM” value was -26.1%.

Regarding `N#Cc1ccc(NC(=O)Cn2c3[n+](c4ccc(C(F)(F)F)cc42)CCCCC3)cc1.[Br-]`, the “hERG current change (%, negative = inhibition) at 1uM” value is recorded as 15.2%.

For `O=C(NCc1ccco1)c1cccc2c1C(=O)N(C1CCCCC1)C2`, the “hERG current change (%, negative = inhibition) at 1uM” value is 4.93%.

For `COc1cc(C2C(C#N)=C(N)OC3=C2C(=O)CCC3)c([N+](=O)[O-])cc1OC` (centres unmarked), the “hERG current change (%, negative = inhibition) at 1uM” value was found to be 9.86%.

`O=S(=O)(c1ccc2c(c1)OCO2)N1CCN(c2nnnn2-c2ccccc2)CC1`: the “hERG current change (%, negative = inhibition) at 1uM” value worked out at 0.0509%.

`COc1cc(OC)cc(N(C(=O)CNC(=O)c2cccs2)C(C(=O)NCC2CCCO2)c2ccc(OC)c(OC)c2)c1` (centres unmarked): the “hERG current change (%, negative = inhibition) at 1uM” value is -0.816%.

Turning to `COc1cc(C(=O)NCC(c2ccco2)N2CCCC2)ccc1OCc1ccccc1` (centres unmarked), the “hERG current change (%, negative = inhibition) at 1uM” value turned out to be 2.31%.

With `CC(CNC(=O)c1ccc(OC2CCN(Cc3ccccn3)CC2)cc1)Oc1cccnc1` (centres unmarked), the “hERG current change (%, negative = inhibition) at 1uM” value is listed as -18.6%.

With `CC(=O)c1cccc(N(C(=O)c2cnccn2)C(C(=O)NCc2ccccc2)c2ccco2)c1` (centres unmarked), the “hERG current change (%, negative = inhibition) at 1uM” value came to 8.22%.

As to `CC(NC(=O)c1ccccc1)c1ccc(Br)cc1` (centres unmarked), the “hERG current change (%, negative = inhibition) at 1uM” value was found to be 12.1%.

In the case of `Cc1ccc(NC(=O)C2CCCN(c3cnccn3)C2)c(C)c1` (centres unmarked), the “hERG current change (%, negative = inhibition) at 1uM” value is -0.933%.

As to `CCOc1ccccc1NC(=O)COc1ccc(S(=O)(=O)N2CCCC2)cc1`, the “hERG current change (%, negative = inhibition) at 1uM” value is recorded as -7.76%.

For the compound `CCN(C(=O)COC(=O)c1cccnc1SC)c1c(N)n(Cc2ccccc2)c(=O)[nH]c1=O`, the “hERG current change (%, negative = inhibition) at 1uM” value was 7.74%.

For the compound `CCCCCCc1cc2cc(S(=O)(=O)c3ccc(C)cc3)c(=O)oc2cc1O`, the “hERG current change (%, negative = inhibition) at 1uM” value was found to be 14.5%.

Take `CCC12CN3CCN(CC(C3)/C1=N/NC(=O)c1ccncc1)C2`: the “hERG current change (%, negative = inhibition) at 1uM” value worked out at 15.5%.

Consider `CCN(CC)S(=O)(=O)c1cccc(C(=O)OCC(=O)NCc2ccccc2OC)c1`, for which the “hERG current change (%, negative = inhibition) at 1uM” value is -2.72%.

With `CCc1nnc(N/N=C/c2ccccc2F)n1N.Cl`, the “hERG current change (%, negative = inhibition) at 1uM” value was 17%.

Regarding `CCN1CCN(CCNC(=O)c2ccc(CS(=O)c3ccc(Br)cc3)o2)CC1` (centres unmarked), the “hERG current change (%, negative = inhibition) at 1uM” value is -10.8%.

As to `C/C(=N\NC(N)=O)c1ccc(Cl)cc1`, the “hERG current change (%, negative = inhibition) at 1uM” value turned out to be 6.05%.

In the case of `NC(=O)c1ccc(C(F)(F)F)cn1`, the “hERG current change (%, negative = inhibition) at 1uM” value is reported as 14.7%.

On to `Cc1ccc(S(=O)(=O)Nc2cc(-c3ccccc3)nn2C)cc1Cl`, for which the “hERG current change (%, negative = inhibition) at 1uM” value is on record as 15.2%.

For `CC(C)(C)c1ccc(-c2nc(NCc3cccnc3)c3ccccc3n2)cc1`, the “hERG current change (%, negative = inhibition) at 1uM” value was found to be 4.24%.

On to `COc1ccc(OC)c(C2=NOC(C(=O)NCc3cccs3)C2)c1` (centres unmarked), for which the “hERG current change (%, negative = inhibition) at 1uM” value worked out at 6.2%.

Regarding `Cc1ccc(N2CC(C(=O)OCC(=O)Nc3ccc(Cl)cc3)CC2=O)cc1` (centres unmarked), the “hERG current change (%, negative = inhibition) at 1uM” value is 9.74%.

For `N#CNC1=NCN(CCc2ccccc2)CN1`, the “hERG current change (%, negative = inhibition) at 1uM” value amounted to 9.92%.

`CCCOC(=O)C1[C@H]2C(=O)N(CCCOC)C[C@]23C=C[C@H]1O3` (some centres unmarked): the “hERG current change (%, negative = inhibition) at 1uM” value is recorded as -2.12%.

In the case of `COc1ccc(Nc2ccc(S(=O)(=O)N3CCCCCC3)cc2[N+](=O)[O-])cc1`, the “hERG current change (%, negative = inhibition) at 1uM” value is reported as 0.702%.

As to `COc1ccc(S(=O)(=O)NCC(=O)NCCc2ccc(OC)c(OC)c2)cc1`, the “hERG current change (%, negative = inhibition) at 1uM” value worked out at 14.9%.

With `COc1cccc(CNC(=O)c2ccc(S(=O)(=O)N3CCCC3)cc2)c1`, the “hERG current change (%, negative = inhibition) at 1uM” value was determined as 8.02%.

With `CC1CCN(CC(=O)c2cccs2)CC1`, the “hERG current change (%, negative = inhibition) at 1uM” value is given as 1.87%.

Turning to `O=C(CSc1nccc(=O)[nH]1)N1N=C2/C(=C/c3ccco3)CCCC2C1c1ccco1` (centres unmarked), the “hERG current change (%, negative = inhibition) at 1uM” value is 12.1%.
